Source: the RNAGym collection of RNA variant scans (doi:10.7554/elife.90254)
The source gives no read counts; variants with many changes may rest on few reads.

B1: LINE1-mini (parent)
chain: GGCAGAGCUCAACACAGCGUGGCAAAGUGGCUGUGGCUAGACUGCC

Variants of: B1
Assay: self-cleavage, relative activity (ratio to wild type); higher = more cleavage; in vitro, sequencing; the parent is a self-cleaving ribozyme
With C8U G19A G35A G36A the self-cleavage was 1.13.
C8U U20G G21U gave a self-cleavage of 0.08.
Variant C8U G29U G30A G40U has a self-cleavage of 0.25.
U9A C10A G22A U34A U43C G44U showed a self-cleavage of 0.01.
Work on C8U G29U A39U C46G yielded a self-cleavage of 0.06.
With U9A A11G C15U U32G A41G the self-cleavage was 0.
C8U C18G A25U U43C gave a self-cleavage of 0.08.
U9A A11U G19A G30C G36U C45A gave a self-cleavage of 0.01.
U9A C23G G27U gave a self-cleavage of 0.12.
With U9A C15G G17A the self-cleavage was 0.03.
In the case of C8U G19U C42A, the self-cleavage is reported as 0.04.
Variant U9A C42A G44U has a self-cleavage of 0.54.
U9A C13G C18G G22U C42A showed a self-cleavage of 0.08.
For U9A C10A G21U G36C, the self-cleavage was 0.04.
With U9A A16G G27U the self-cleavage was 0.04.
With U9A C15A U43C the self-cleavage was 0.23.
C8U G35A U38C gave a self-cleavage of 0.05.
C8U C15U A25U gave a self-cleavage of 0.36.
Work on C8U G35A G36U C45A yielded a self-cleavage of 0.16.
U9A A11U A14C G17C U38A showed a self-cleavage of 0.01.
C8U G17A G36A gave a self-cleavage of 0.08.
Variant U9A A16G G30U A39G has a self-cleavage of 0.01.
In the case of U9A A14C A16G C23U A25U, the self-cleavage is reported as 0.03.
In the case of C8U C18A G19U A39U, the self-cleavage is reported as 0.11.
C8U G22A G33A U34C showed a self-cleavage of 0.08.
U9A A12G A16G U28G gave a self-cleavage of 0.18.
In the case of U9A A14G C15U, the self-cleavage is reported as 0.29.
In the case of U9A C13U C15U A26G, the self-cleavage is reported as 0.03.
In the case of C8U C31U G36C, the self-cleavage is reported as 0.04.
C8U G22C G40C showed a self-cleavage of 0.26.
In the case of C8U G22C G40A, the self-cleavage is reported as 0.3.
Variant U9A C37G C46A has a self-cleavage of 0.05.
Variant C8U C23G G27U A39U has a self-cleavage of 0.1.
With U9A C13G A14G U20A G40A the self-cleavage was 0.24.
In the case of C8U U9A G17U, the self-cleavage is reported as 0.05.
C8U C15U G27U gave a self-cleavage of 0.11.
C8U C31U G36U U38G gave a self-cleavage of 0.02.
U9A A11G C45G gave a self-cleavage of 0.04.
C8U U28C G35U gave a self-cleavage of 0.14.
C8U G27A U28G G40U showed a self-cleavage of 0.17.
In the case of C8U G17U C37A, the self-cleavage is reported as 0.13.
Variant U9A G17C U34G has a self-cleavage of 0.06.
C8U G17C G21U C23G showed a self-cleavage of 0.02.
With C8U G19U C23G G35A U43C the self-cleavage was 0.32.
C8U U28C G30C C42G gave a self-cleavage of 0.1.
U9A A25G C37G A41U C42A showed a self-cleavage of 0.
C8U C23A G27A C46U gave a self-cleavage of 0.59.
C8U G21A G29U C37A showed a self-cleavage of 0.13.
For U9A C10U G22A G44C, the self-cleavage was 0.03.
Work on U9A C13A G21U C45G yielded a self-cleavage of 0.13.
For C8U U9C G33U, the self-cleavage was 0.01.
In the case of U9A A25C G40U, the self-cleavage is reported as 0.04.
Work on U9A C31U U43A yielded a self-cleavage of 0.05.
With U9A G17C G30A C46U the self-cleavage was 0.15.
In the case of C8U C18U U34G G36C A41G G44C, the self-cleavage is reported as 0.06.
Work on C8U U34A A39G G44C C46A yielded a self-cleavage of 0.01.
For C8U G21A G22U, the self-cleavage was 0.19.
Variant U9A A26U U32A has a self-cleavage of 0.08.
Work on U9A A12U G36U yielded a self-cleavage of 0.02.
In the case of C8U G17A G29U A41C U43C, the self-cleavage is reported as 0.03.
Variant C8U G22A G29A G33U C46G has a self-cleavage of 0.03.
With U9A C31A C37G U38C the self-cleavage was 0.01.
With U9A C18G G21A the self-cleavage was 0.07.
Variant C8U U20G A24G C31G has a self-cleavage of 0.03.
With U9A A11U G21C the self-cleavage was 0.01.
C8U C15U G17C C23U A25C gave a self-cleavage of 0.17.
Variant U9A G17A U38C has a self-cleavage of 0.03.
Variant C8U C18G C23A G35A has a self-cleavage of 0.13.
U9A C18G G27C showed a self-cleavage of 0.15.
Variant C8U U38A C45A has a self-cleavage of 0.07.
For C8U G35C U38G, the self-cleavage was 0.23.
With U9A A16U G19A G29U G30C G36A the self-cleavage was 0.07.
U9A G17A A26U gave a self-cleavage of 0.02.
Variant U9A C15G G27A has a self-cleavage of 0.01.
U9A A14C U32C G40A gave a self-cleavage of 0.06.
With U9A A24C C42A the self-cleavage was 0.04.
With C8U G21U U43A the self-cleavage was 0.02.
Work on C8U G29A C31U G36U G40A U43C C46U yielded a self-cleavage of 0.02.
C8U U28A U38G showed a self-cleavage of 0.02.
C8U G36A C42G G44C showed a self-cleavage of 0.21.
U9A C13U C23U C45A showed a self-cleavage of 0.09.
For C8U U20A G40A, the self-cleavage was 0.12.
With C8U U9C C13A G22U A39G C45A C46U the self-cleavage was 0.02.
Work on C8U G29A U38C U43A yielded a self-cleavage of 0.05.
Work on C8U C23U G33A yielded a self-cleavage of 0.02.
With C8U C15U G29C A39G the self-cleavage was 0.02.
With U9A A25C G29A G35C C37A C45G the self-cleavage was 0.19.
In the case of C8U G22C G33U, the self-cleavage is reported as 0.06.
Variant U9A A11C C15U G29A G36A C42G has a self-cleavage of 0.
Variant C8U C23U G30U C37G C42U has a self-cleavage of 0.06.
C8U G21U G29U G30A showed a self-cleavage of 0.22.
With C8U U9A U28C the self-cleavage was 0.05.
U9A C10A A39C C45U showed a self-cleavage of 0.01.
In the case of U9A G17A G30C G44C, the self-cleavage is reported as 0.01.
C8U C18G A26C U32A C45U gave a self-cleavage of 0.05.
C8U C23U G30C showed a self-cleavage of 0.04.
With U9A A14G G21U the self-cleavage was 0.09.
C8U G27U G29C showed a self-cleavage of 0.19.
With C8U G21A G22C C23A U28A C45A the self-cleavage was 0.03.
For U9A A12U A16C, the self-cleavage was 0.11.
Work on U9A C13U C15U A16C A25C yielded a self-cleavage of 0.3.
C8U G30U A39C showed a self-cleavage of 0.19.
U9A G17A A24C G27A U32G showed a self-cleavage of 0.05.
With U9A A11C U34C A41C the self-cleavage was 0.02.
In the case of C8U G17C G27C, the self-cleavage is reported as 0.01.
U9A C15U A24U A25C G29U G33U A41U showed a self-cleavage of 0.28.
For U9A C18A C23U G35C C37G U43G, the self-cleavage was 0.09.
C8U U9A G19A G30C G44C showed a self-cleavage of 0.03.
In the case of C8U G17A G27C U34A C37G G40A, the self-cleavage is reported as 0.42.
Work on C8U G19C C31A A41C yielded a self-cleavage of 0.01.
C8U C23U U28G G35C showed a self-cleavage of 0.61.
For C8U U9A C23U C31G G40C, the self-cleavage was 0.07.
For C8U G35U U38A, the self-cleavage was 0.06.
Work on C8U U20G G36C U43A yielded a self-cleavage of 0.02.
Work on C8U G19A G36C A39C C46G yielded a self-cleavage of 0.02.
In the case of U9A C13G C23U, the self-cleavage is reported as 0.1.
Variant C8U C18A G40U C45U has a self-cleavage of 0.16.
C8U U20G A25C C46A showed a self-cleavage of 0.17.
U9A C23A A24U G27C C37U G40U showed a self-cleavage of 0.03.
Work on C8U G19U G30C U38C C42A yielded a self-cleavage of 0.01.
In the case of U9A A11C G30A C37A G44C C46G, the self-cleavage is reported as 0.
C8U G33C A39U C42G showed a self-cleavage of 0.03.
For C8U G17C G44U, the self-cleavage was 0.
For C8U G27U G36U, the self-cleavage was 0.01.
Variant U9A C10A C13G C23U C45G has a self-cleavage of 0.04.
Work on C8U G17A C23A G27A U32C G36A yielded a self-cleavage of 0.02.
C8U G17C A24C G30U gave a self-cleavage of 0.15.
In the case of C8U U9A G36A G40C, the self-cleavage is reported as 0.05.
Variant U9A A12C C18A U20G G29U C46G has a self-cleavage of 0.05.
Work on U9A A16G A39C yielded a self-cleavage of 0.07.
Variant C8U G19A C45U has a self-cleavage of 0.15.
Work on C8U U9G G22U yielded a self-cleavage of 0.02.
Work on U9A C18U G22U yielded a self-cleavage of 0.07.
U9A C23G U32C A41C showed a self-cleavage of 0.02.
C8U U9G U28G G40U showed a self-cleavage of 0.03.
Work on U9A C15G A24G G30U U32G G40C yielded a self-cleavage of 0.12.
In the case of C8U U9A C10G U34A G40U G44U, the self-cleavage is reported as 0.02.
For C8U U28A G35U A39U, the self-cleavage was 0.09.
With U9A C13U C18G U43C the self-cleavage was 0.3.
Work on C8U G22U C31G C45G yielded a self-cleavage of 0.14.
C8U C18U G19C G27C G36A C42A showed a self-cleavage of 0.07.
For C8U G17U G22A A26G G27C, the self-cleavage was 0.03.
For C8U U32G A39G C42U, the self-cleavage was 0.05.
U9A C15G U38C gave a self-cleavage of 0.17.
In the case of C8U U28G U32A, the self-cleavage is reported as 0.03.
For U9A A14U G22A U32C C42A, the self-cleavage was 0.03.
Variant C8U U20C G35C has a self-cleavage of 0.05.
Work on C8U U9G A12C C18U U20G G27U G30U yielded a self-cleavage of 0.01.
C8U G19U U28A C42A C46G gave a self-cleavage of 0.01.
C8U G21A G29U gave a self-cleavage of 1.11.
For C8U G17C G21U, the self-cleavage was 0.09.
With C8U G33A G35U the self-cleavage was 0.15.
Work on C8U G30A G35C G36C C37U yielded a self-cleavage of 0.17.
Work on C8U C18G U34A G35C yielded a self-cleavage of 0.02.
Work on C8U G22C G27A G29A G36A C45U yielded a self-cleavage of 0.17.
Work on U9A C10G C15U A16U G17A U38G yielded a self-cleavage of 0.01.
U9A A16G G40A gave a self-cleavage of 0.03.
For U9A C15U G44A, the self-cleavage was 0.92.
With U9A C15U G44C the self-cleavage was 0.16.
U9A C13G C46A showed a self-cleavage of 0.14.
With U9A A12U C15U U34A the self-cleavage was 0.02.
In the case of U9A C10A G22U C31G U38A U43C, the self-cleavage is reported as 0.01.
U9A C13A A16C G21C C37G gave a self-cleavage of 0.13.
Work on U9A A12U G22A G44A yielded a self-cleavage of 0.05.
U9A G17C A25G G36U gave a self-cleavage of 0.12.
Work on C8U C18G A39C yielded a self-cleavage of 0.03.
Work on U9A A14U C31U G35U G36U yielded a self-cleavage of 0.03.
